The values that follow come from patent publication US20190367612A1 (Daiichi Sankyo, published 2019).

In test [1] the target is T1, amino-terminal peptide of cynomolgus monkey GPRC5D …(Biotin)-NH2 (cynomolgus monkey, C-terminal lysine carrying biotin, C-terminal amide).
T1 construct: also called amino-terminal peptide of biotinylated cynomolgus monkey GPRC5D
T1 peptide: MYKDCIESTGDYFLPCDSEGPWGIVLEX
Description: ELISA, chemiluminescence: biotinylated amino-terminal peptide of cynomolgus monkey GPRC5D on NeutrAvidin, scFv detected with HRP anti-FLAG antibody. Here is the method: (§1) NeutrAvidin diluted to 1 μg/mL with PBS was added in an amount of 50 μL/well to 96-well Maxi-sorp plate (Black, Nunc/Thermo Fisher Scientific Inc.), and the plate was left standing overnight at 4° C. for immobilization. After washing three times with an ELISA buffer, the amino-terminal peptide of the biotinylated human or cynomolgus monkey GPRC5D (used in Example 10)-1) diluted to 1 μg/mL with PBS was added thereto, and the plate was shaken at room temperature for 1 hour. After washing three times with an ELISA buffer, the plate was blocked with Blocker Casein and washed three times with an ELISA buffer. Then, the C2037, C3048, C3015, or C3022 scFv was added to the plate and reacted at room temperature for 2 hours. After washing three times with an ELISA buffer, a horseradish peroxidase (HRP)-labeled anti-FLAG antibody diluted 5000-fold with an ELISA buffer was added thereto in an amount of 50 μL/well and reacted at room temperature for 1 hour. After washing five times with an ELISA buffer, SuperSignal Pico ELISA Chemiluminescent substrate was added. After 10 minutes, the chemiluminescence was measured using a plate reader.
A general note: In an ELISA, binding on a coated surface is turned into a signal by an enzyme label.

A further test addresses T2, human GPRC5D (human, UniProt Q9NZD1 1-345).
T2 construct: whole, on cells; also called hGPRC5D; G-protein coupled receptor family C group 5 member D
Briefly: flow cytometry on KMS-34 cells (endogenous human GPRC5D), anti-FLAG antibody and Alexa 488 anti-mouse IgG detection. Here is the method:
The KMS-34 cells were recovered by centrifugation, washed twice with a FACS buffer (PBS containing 0.5% BSA and 2 mM EDTA, pH 7.4), and then suspended in the same solution as above. The C2037, C3048, C3015 or C3022 scFv was added to the obtained cell suspension, and the mixture was left standing at 4° C. for 2 hours. After washing twice with a FACS buffer, the cells were suspended by the addition of an anti-FLAG antibody (Sigma-Aldrich Corp.), and the mixture was further left standing at 4° C. for 1 hour. After washing twice with a FACS buffer, the cells were suspended by the addition of Alexa 488-labeled anti-mouse IgG antibody (Jackson ImmunoResearch Laboratories, Inc.), and the mixture was further left standing at 4° C. for 1 hour. After washing twice with a FACS buffer, the cells were fixed in 1% PFA (prepared from a 32% paraformaldehyde solution (Electron Microscopy Sciences)), followed by detection using a flow cytometer (FACSCanto™ II; Becton, Dickinson and Company). The data was analyzed using Flowjo (Tree Star, Inc.).

Test [2] deals with T3, human GPRC5D amino-terminal peptide MYKDCIESTGDYFLLCDAEGPWGIILE-K(Biotin)-NH2, having an intramolecular … (human, C-terminal lysine carrying biotin, C-terminal amide; intramolecularly formed disulfide bond).
T3 construct: Peptide Institute synthetic peptide; also called amino-terminal peptide of biotinylated human GPRC5D (disulfide bond present)
T3 peptide: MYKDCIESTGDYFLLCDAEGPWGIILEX
Briefly: ELISA, chemiluminescence: biotinylated amino-terminal peptide of human GPRC5D on NeutrAvidin, scFv detected with HRP anti-FLAG antibody. The protocol:
as §1

B1: human antibody C2037 scFv (scFv)
scFv: [about 100 residues not listed]GKSNYPWGQGTLVTVSSGGGGSGGGGSGGGGSQPVLTQPPSASGTPGQRVTISCSGSNSNIGSRTVNWYQHLPGTAPRLLIYGNNQWPSGVPDRFSGSKSGSSASLAISGLRSEDEADYYCAAWDDSLSGVVFGGGTKLTVL
notes: also called C2037 antibody scFv; not shown: FLAG and His tags at the carboxyl terminus
The EC50 (read off the curve) is the midpoint of the concentration-response curve. Consider B1, for which the results for the “EC50 (read off the curve)” value in test [1] and in test [2] were around 5 nM and around 9 nM, respectively. Also, in the test with human GPRC5D, the binding result is recorded as “binds”.
